# The supplement of paper PMC8728848
# The other results are listed elsewhere or left out.
# What was measured:
# Assay in all cases: glycan array binding signal (z-score within array); higher = stronger binding
# Conditions in all cases: glycan notation: IUPAC condensed, linker removed
# [1] = target: GlcNAc(b1-2)[GlcNAc(b1-4)]Man(a1-3)[GlcNAc(b1-4)][GlcNAc(b1-2)Man(a1-6)]Man(b1-4)GlcNAc(b1-4)GlcNAc
# How it was run: (§1)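 Negative Z-scores can be read as non-binding. The Z-score is calculated within each array and then averaged across arrays of one protein sequence at different concentrations or buffers and across linkers. Arrays, 3228 in all, were curated from the Consortium for Functional Glycomics database and kept only where the protein sequence was available.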
# [2] = target: GlcNAc(b1-2)[GlcNAc(b1-4)]Man(a1-3)[GlcNAc(b1-4)][GlcNAc(b1-2)[GlcNAc(b1-6)]Man(a1-6)]Man(b1-4)GlcNAc(b1-4)GlcNAc
# How it was run: as §1
# [3] = target: GlcNAc(b1-2)[GlcNAc(b1-4)]Man(a1-3)[GlcNAc(b1-4)][GlcNAc(b1-2)[GlcNAc(b1-6)]Man(a1-6)]Man(b1-4)GlcNAc(b1-4)[Fuc(a1-6)]GlcNAc
# How it was run: as §1
# [4] = target: GlcNAc(b1-2)[GlcNAc(b1-6)]Man(a1-6)[GlcNAc(b1-2)Man(a1-3)]Man(b1-4)GlcNAc(b1-4)GlcNAc
# How it was run: as §1
# [5] = target: GlcNAc(b1-2)[GlcNAc(b1-6)]Man(a1-6)[GlcNAc(b1-2)Man(a1-3)]Man(b1-4)GlcNAc(b1-4)[Fuc(a1-6)]GlcNAc
# How it was run: as §1
# [6] = target: GlcNAc(b1-2)[GlcNAc(b1-6)]Man(a1-6)[GlcNAc(b1-4)][GlcNAc(b1-2)Man(a1-3)]Man(b1-4)GlcNAc(b1-4)GlcNAc
# How it was run: as §1
# [7] = target: GlcNAc(b1-3)Fuc
# How it was run: as §1
# [8] = target: GlcNAc(b1-3)Gal
# How it was run: as §1
# [9] = target: GlcNAc(b1-3)Gal(b1-3)GalNAc
# How it was run: as §1
# [10] = target: GlcNAc(b1-3)Gal(b1-4)Glc
# How it was run: as §1
# [11] = target: GlcNAc(b1-3)Gal(b1-4)GlcNAc
# How it was run: as §1
# [12] = target: GlcNAc(b1-3)Gal(b1-4)GlcNAc(b1-2)Man(a1-3)[GlcNAc(b1-3)Gal(b1-4)GlcNAc(b1-2)Man(a1-6)]Man(b1-4)GlcNAc(b1-4)GlcNAc
# How it was run: as §1
# [13] = target: GlcNAc(b1-3)Gal(b1-4)GlcNAc(b1-2)Man(a1-3)[GlcNAc(b1-3)Gal(b1-4)GlcNAc(b1-2)Man(a1-6)]Man(b1-4)GlcNAc(b1-4)[Fuc(a1-6)]GlcNAc
# How it was run: as §1
# [14] = target: GlcNAc(b1-3)Gal(b1-4)GlcNAc(b1-2)[GlcNAc(b1-3)Gal(b1-4)GlcNAc(b1-6)]Man(a1-6)[GlcNAc(b1-3)Gal(b1-4)GlcNAc(b1-2)Man(a1-3)]Man(b1-4)GlcNAc(b1-4)GlcNAc
# How it was run: as §1
# [15] = target: GlcNAc(b1-3)Gal(b1-4)GlcNAc(b1-3)Gal(b1-4)GlcNAc
# How it was run: as §1
# [16] = target: GlcNAc(b1-3)Gal(b1-4)GlcNAc(b1-3)Gal(b1-4)GlcNAc(b1-2)Man(a1-3)[GlcNAc(b1-3)Gal(b1-4)GlcNAc(b1-3)Gal(b1-4)GlcNAc(b1-2)Man(a1-6)]Man(b1-4)GlcNAc(b1-4)GlcNAc
# How it was run: as §1
# [17] = target: GlcNAc(b1-3)Gal(b1-4)GlcNAc(b1-3)Gal(b1-4)GlcNAc(b1-2)Man(a1-3)[GlcNAc(b1-3)Gal(b1-4)GlcNAc(b1-3)Gal(b1-4)GlcNAc(b1-2)Man(a1-6)]Man(b1-4)GlcNAc(b1-4)[Fuc(a1-6)]GlcNAc
# How it was run: as §1
# [18] = target: GlcNAc(b1-3)Gal(b1-4)GlcNAc(b1-3)Gal(b1-4)GlcNAc(b1-2)[GlcNAc(b1-3)Gal(b1-4)GlcNAc(b1-3)Gal(b1-4)GlcNAc(b1-6)]Man(a1-6)[GlcNAc(b1-3)Gal(b1-4)GlcNAc(b1-3)Gal(b1-4)GlcNAc(b1-2)Man(a1-3)]Man(b1-4)GlcNAc(b1-4)[Fuc(a1-6)]GlcNAc
# How it was run: as §1
# [19] = target: GlcNAc(b1-3)Gal(b1-4)GlcNAc(b1-3)Gal(b1-4)GlcNAc(b1-3)Gal(b1-4)GlcNAc(b1-2)Man(a1-3)[GlcNAc(b1-3)Gal(b1-4)GlcNAc(b1-3)Gal(b1-4)GlcNAc(b1-3)Gal(b1-4)GlcNAc(b1-2)Man(a1-6)]Man(b1-4)GlcNAc(b1-4)GlcNAc
# How it was run: as §1
# [20] = target: GlcNAc(b1-3)Gal(b1-4)GlcNAc(b1-3)Gal(b1-4)GlcNAc(b1-3)Gal(b1-4)GlcNAc(b1-2)Man(a1-3)[GlcNAc(b1-3)Gal(b1-4)GlcNAc(b1-3)Gal(b1-4)GlcNAc(b1-3)Gal(b1-4)GlcNAc(b1-2)Man(a1-6)]Man(b1-4)GlcNAc(b1-4)[Fuc(a1-6)]GlcNAc
# How it was run: as §1
# [21] = target: GlcNAc(b1-3)Gal(b1-4)GlcNAc(b1-3)Gal(b1-4)GlcNAc(b1-3)Gal(b1-4)GlcNAc(b1-2)[GlcNAc(b1-3)Gal(b1-4)GlcNAc(b1-3)Gal(b1-4)GlcNAc(b1-3)Gal(b1-4)GlcNAc(b1-6)]Man(a1-6)[GlcNAc(b1-3)Gal(b1-4)GlcNAc(b1-3)Gal(b1-4)GlcNAc(b1-3)Gal(b1-4)GlcNAc(b1-2)Man(a1-3)]Man(b1-4)GlcNAc(b1-4)[Fuc(a1-6)]GlcNAc
# How it was run: as §1
# [22] = target: GlcNAc(b1-3)Gal(b1-4)GlcNAc(b1-3)Gal(b1-4)GlcNAc(b1-3)Gal(b1-4)GlcNAc(b1-3)Gal(b1-4)GlcNAc(b1-2)Man(a1-3)[GlcNAc(b1-3)Gal(b1-4)GlcNAc(b1-3)Gal(b1-4)GlcNAc(b1-3)Gal(b1-4)GlcNAc(b1-3)Gal(b1-4)GlcNAc(b1-2)Man(a1-6)]Man(b1-4)GlcNAc(b1-4)GlcNAc
# How it was run: as §1
# [23] = target: GlcNAc(b1-3)Gal(b1-4)GlcNAc(b1-3)Gal(b1-4)GlcNAc(b1-3)Gal(b1-4)GlcNAc(b1-3)Gal(b1-4)GlcNAc(b1-2)Man(a1-3)[GlcNAc(b1-3)Gal(b1-4)GlcNAc(b1-3)Gal(b1-4)GlcNAc(b1-3)Gal(b1-4)GlcNAc(b1-3)Gal(b1-4)GlcNAc(b1-2)Man(a1-6)]Man(b1-4)GlcNAc(b1-4)[Fuc(a1-6)]GlcNAc
# How it was run: as §1
# [24] = target: GlcNAc(b1-3)Gal(b1-4)GlcNAc(b1-3)Gal(b1-4)GlcNAc(b1-3)Gal(b1-4)GlcNAc(b1-3)Gal(b1-4)GlcNAc(b1-2)[GlcNAc(b1-3)Gal(b1-4)GlcNAc(b1-3)Gal(b1-4)GlcNAc(b1-3)Gal(b1-4)GlcNAc(b1-3)Gal(b1-4)GlcNAc(b1-6)]Man(a1-6)[GlcNAc(b1-3)Gal(b1-4)GlcNAc(b1-3)Gal(b1-4)GlcNAc(b1-3)Gal(b1-4)GlcNAc(b1-3)Gal(b1-4)GlcNAc(b1-2)Man(a1-3)]Man(b1-4)GlcNAc(b1-4)[Fuc(a1-6)]GlcNAc
# How it was run: as §1
# [25] = target: GlcNAc(b1-3)Gal(b1-4)GlcNAc(b1-3)Gal(b1-4)GlcNAc(b1-3)GalNAc
# How it was run: as §1
# [26] = target: GlcNAc(b1-3)Gal(b1-4)GlcNAc(b1-3)GalNAc
# How it was run: as §1
# [27] = target: GlcNAc(b1-3)Gal(b1-4)GlcNAc(b1-3)[GlcNAc(b1-3)Gal(b1-4)GlcNAc(b1-3)]GalNAc
# How it was run: as §1
# [28] = target: GlcNAc(b1-3)Gal(b1-4)GlcNAc(b1-6)[Gal(b1-3)]GalNAc
# How it was run: as §1
# [29] = target: GlcNAc(b1-3)Gal(b1-4)GlcNAc(b1-6)[GlcNAc(b1-3)Gal(b1-3)]GalNAc
# How it was run: as §1
# [30] = target: GlcNAc(b1-3)Gal(b1-4)GlcNAc(b1-6)[GlcNAc(b1-3)]Gal(b1-4)GlcNAc
# How it was run: as §1
# [31] = target: GlcNAc(b1-3)GalNAc
# How it was run: as §1
# [32] = target: GlcNAc(b1-3)Man
# How it was run: as §1
# [33] = target: GlcNAc(b1-3)[GlcNAc(b1-4)][GlcNAc(b1-6)]GlcNAc
# How it was run: as §1
# [34] = target: GlcNAc(b1-3)[GlcNAc(b1-6)]Gal(b1-4)GlcNAc
# How it was run: as §1
# [35] = target: GlcNAc(b1-3)[GlcNAc(b1-6)]GalNAc
# How it was run: as §1
# [36] = target: GlcNAc(b1-4)Gal(b1-4)GlcNAc
# How it was run: as §1
# [37] = target: GlcNAc(b1-4)GlcNAc
# How it was run: as §1
# [38] = target: GlcNAc(b1-4)GlcNAc(b1-4)GlcNAc
# How it was run: as §1
binder,measurement,setting,value
DC-ASGPR Long (Homo sapiens) (protein) MTRTYENFQYLENKVKVQGFKNGPLPLQSLLQRLRSGPCHLLLSLGLGLLLLVIICVVGFQNSKFQRDLVTLRTDFSNFTSNTVAEIQALTSQGSSLEETIASLKAEVEGFKQERQAGVSELQEHTTQKAHLGHCPHCPSVCVPVHSEMLLRVQQLVQDLKKLTCQVATLNNNASTEGTCCPVNWVEHQDSCYWFSHSGMSWAEAEKYCQLKNAHLVVINSREEQNFVQKYLGSAYTWMGLSDPEGAWKWVDGTDYATGFQNWKPGQPDDWQGHGLGGGEDCAHFHPDGGWNDDVCQRPYHWVCEAGLGQTSQESH,glycan array binding signal (z-score),[1],-0.122
same,glycan array binding signal (z-score),[2],-0.298
same,glycan array binding signal (z-score),[3],0.032
same,glycan array binding signal (z-score),[4],5.41
same,glycan array binding signal (z-score),[5],0.235
same,glycan array binding signal (z-score),[6],-0.509
same,glycan array binding signal (z-score),[7],-0.422
same,glycan array binding signal (z-score),[8],-0.203
same,glycan array binding signal (z-score),[9],-0.434
same,glycan array binding signal (z-score),[10],-0.353
same,glycan array binding signal (z-score),[11],-0.433
same,glycan array binding signal (z-score),[12],-0.382
same,glycan array binding signal (z-score),[13],-0.305
same,glycan array binding signal (z-score),[14],-0.057
same,glycan array binding signal (z-score),[15],-0.502
same,glycan array binding signal (z-score),[16],-0.06
same,glycan array binding signal (z-score),[17],-0.454
same,glycan array binding signal (z-score),[18],-0.092
same,glycan array binding signal (z-score),[19],-0.279
same,glycan array binding signal (z-score),[20],0.194
same,glycan array binding signal (z-score),[21],0.093
same,glycan array binding signal (z-score),[22],0.068
same,glycan array binding signal (z-score),[23],1.61
same,glycan array binding signal (z-score),[24],0.067
same,glycan array binding signal (z-score),[25],-0.236
same,glycan array binding signal (z-score),[26],-0.16
same,glycan array binding signal (z-score),[27],-0.316
same,glycan array binding signal (z-score),[28],0.213
same,glycan array binding signal (z-score),[29],-0.22
same,glycan array binding signal (z-score),[30],-0.245
same,glycan array binding signal (z-score),[31],-0.555
same,glycan array binding signal (z-score),[32],-0.414
same,glycan array binding signal (z-score),[33],-0.508
same,glycan array binding signal (z-score),[34],-0.555
same,glycan array binding signal (z-score),[35],-0.474
same,glycan array binding signal (z-score),[36],-0.763
same,glycan array binding signal (z-score),[37],-0.48
same,glycan array binding signal (z-score),[38],-0.382
